# From publication PMC7819943, “Rice protein-binding microarrays: a tool to detect cis-acting elements near promoter regions in rice”
# Some of the results follow.
# Target: T1, OsWOX13 (Oryza sativa, UniProt Q5QMM3 1-267)
# T1 sequence: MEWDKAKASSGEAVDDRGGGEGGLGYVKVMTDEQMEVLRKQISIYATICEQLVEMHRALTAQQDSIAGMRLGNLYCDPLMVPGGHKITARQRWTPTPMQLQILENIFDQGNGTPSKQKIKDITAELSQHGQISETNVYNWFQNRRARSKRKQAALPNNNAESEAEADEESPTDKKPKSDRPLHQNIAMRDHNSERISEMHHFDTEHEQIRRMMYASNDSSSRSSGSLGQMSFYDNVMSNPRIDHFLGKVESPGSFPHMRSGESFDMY
# Assay: protein-binding microarray (RPBM); PBS, 2% BSA, 51.3 ng/ul salmon testes DNA, 50 uM zinc acetate, 200 nM TF, 25 C, 1 h; high values mean tight binding
# Conditions: protein: recombinant; tags: N-terminal polyhistidine and DsRed monomer fusion (pET32a); label: CyDye5-dUTP incorporated in the synthesized complementary strand; 3' TTTTT single-stranded linker to array surface; dsDNA, one strand shown
# Method in brief: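 The binding signal is fluorescence intensity per feature, in arbitrary units, read on an Axon 4000B scanner. Polyhistidine- and DsRed-tagged transcription factors (N-terminal fusions) from E. coli BL21-CodonPlus were purified on Ni–NTA and applied at 200 nM for 1 h at 25 °C to a double-stranded, BSA-blocked custom Agilent array in buffer with 50 µM zinc acetate.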
row,Sequence,binding signal
1,GGGTAGACTAGTATTATGTTATTATCCCTGACAGGTGGGCCGGAGTCACCTAGTGCAG,3520 fluorescence intensity (a.u.)
2,CTGTCCATTAAGATCTAGTAACAGAGCAATCAGAATTCAGCGGAGTCACCTAGTGCAG,4650 fluorescence intensity (a.u.)
3,GCTTGGATGCTTGATTACAATTTAGTACTAGTGTACTACACGGAGTCACCTAGTGCAG,4270 fluorescence intensity (a.u.)
4,CTAATTAGTAACATGAAGAGAGGGCAATCAATGTACAGTGCGGAGTCACCTAGTGCAG,17600 fluorescence intensity (a.u.)
5,TATTCGACTATGGTTTGATTGGCTAGCACCGGGATCTTACCGGAGTCACCTAGTGCAG,12800 fluorescence intensity (a.u.)
6,CGGATTAATTAGGCTCAAAAGATTCGTCTCGCGGTTTCTACGGAGTCACCTAGTGCAG,20500 fluorescence intensity (a.u.)
7,CTTGATTGAGAGATACAGCTAGTTGCAAGATTATAGCAAACGGAGTCACCTAGTGCAG,33700 fluorescence intensity (a.u.)
8,ATTATTGACAAAAGCATCTCGATATCTTATGGATTAATATCGGAGTCACCTAGTGCAG,4720 fluorescence intensity (a.u.)
9,TTTAGTTAAATTTAAAATAGATTAAGTTTGACTAAAGTCTCGGAGTCACCTAGTGCAG,27100 fluorescence intensity (a.u.)
10,GAATGCAAGAAACATAAATAGATTGATATATAGACTATACCGGAGTCACCTAGTGCAG,9410 fluorescence intensity (a.u.)
11,CATCAATTAAGTTTCAGATCAACTCGTCTGTCAAGAGAGCCGGAGTCACCTAGTGCAG,25500 fluorescence intensity (a.u.)
12,ATCTTCTCAGAATTTTGATTGTCTTTGAAATGGAGAGCACCGGAGTCACCTAGTGCAG,5360 fluorescence intensity (a.u.)
13,CCTCACCCCTTCTAATTATTTGATATTAGGTCCTTCACTACGGAGTCACCTAGTGCAG,3480 fluorescence intensity (a.u.)
14,CTTACATAATTATACAACACAATATCAAAACAATTTTCTACGGAGTCACCTAGTGCAG,7400 fluorescence intensity (a.u.)
15,CATAATTAGTGCTAGCTAAGTCAATCCTGCAAGCCTATATCGGAGTCACCTAGTGCAG,9180 fluorescence intensity (a.u.)
16,GGCGTATTTCCCAATCATTGTGCGGTCCAAAACCATCGCCCGGAGTCACCTAGTGCAG,10000 fluorescence intensity (a.u.)
17,CAGTTTATTGGTTTATATGATTTATAAGCTGGTGATTTAACGGAGTCACCTAGTGCAG,9160 fluorescence intensity (a.u.)
18,AAAGTAGTTAATTACTGCTAATTACATGGATTAGTTGGGTCGGAGTCACCTAGTGCAG,33500 fluorescence intensity (a.u.)
19,CTAAACTTATAGGAGTATTAATTAGCATCAGCAAGTTACTCGGAGTCACCTAGTGCAG,5330 fluorescence intensity (a.u.)
20,TCTCAATCAATCTCACCATCCGACGGTCGCAACGAGCCAACGGAGTCACCTAGTGCAG,18800 fluorescence intensity (a.u.)
21,GCAGGATTGTTAACTAAACTCGGTCAAACCCGATAAACTGCGGAGTCACCTAGTGCAG,10900 fluorescence intensity (a.u.)

row,Sequence,binding signal
1,CTATAATTATATTTTAAATTACATTTAACGTTTTCTACAGCGGAGTCACCTAGTGCAG,44400 fluorescence intensity (a.u.)
2,ACACAGGATTCTGATAGTAATTGAAGTATAAAACAGAGGACGGAGTCACCTAGTGCAG,5060 fluorescence intensity (a.u.)
3,AATTTACAAATGTAATTTTAGTTATATAGGACTGTAAGTTCGGAGTCACCTAGTGCAG,3920 fluorescence intensity (a.u.)
4,ATCTTCGCAAAAGCTTTGCCACTGTGCCTCCATGGAACTGCGGAGTCACCTAGTGCAG,7040 fluorescence intensity (a.u.)
5,GAAACTAATGTATAACAGGAGCAACATGTTCGTAGTACAGCGGAGTCACCTAGTGCAG,3410 fluorescence intensity (a.u.)
6,ATCCAATAAATTATTACAAGCCTGAATGACACAGCAAGAACGGAGTCACCTAGTGCAG,12600 fluorescence intensity (a.u.)
7,CTTAAAACACCAGTAATTGACTAGTAAACCCCTCATTCACCGGAGTCACCTAGTGCAG,30900 fluorescence intensity (a.u.)
8,GCAGTAACAAGCTTTTAATTTTGGATCAAGAGTTTGGATTCGGAGTCACCTAGTGCAG,4520 fluorescence intensity (a.u.)
9,CATAATTACTGATTAATTTACTTCGAGGCAGAAGATACCACGGAGTCACCTAGTGCAG,37300 fluorescence intensity (a.u.)
10,CCATCAATCTTTAATGTTTGTCTGTTAAGCAGGTTTGTTCCGGAGTCACCTAGTGCAG,7310 fluorescence intensity (a.u.)
11,TTTGACTGAACTTCATCTCCAGGAGGGGTGGAGCTGGAGCCGGAGTCACCTAGTGCAG,20600 fluorescence intensity (a.u.)
12,AGTCGAAATTGAGGGACCTTAATAAGTTTTAAACTTGATCCGGAGTCACCTAGTGCAG,4700 fluorescence intensity (a.u.)
13,GACATAATGACATGAAATGTAACTGAAAGCATTTAGCACTCGGAGTCACCTAGTGCAG,9660 fluorescence intensity (a.u.)
14,TTATAATAATACCGAATTGATGATCTGACTGCGAATGCATCGGAGTCACCTAGTGCAG,7290 fluorescence intensity (a.u.)
15,AACAAATTACGGATTCCGTCAGGAAACTGCGAGACGAATTCGGAGTCACCTAGTGCAG,4580 fluorescence intensity (a.u.)
16,TTTCAAATTGAATGTTTGGATTTGAAACATATCAAAAGTTCGGAGTCACCTAGTGCAG,17100 fluorescence intensity (a.u.)
17,ATTAATAGAATACTCATATCAACAGGTTGCAACTTCTTTTCGGAGTCACCTAGTGCAG,6320 fluorescence intensity (a.u.)
18,AACACTAATTTAGTATCGAGTTTAACACAGTACTCCCTCCCGGAGTCACCTAGTGCAG,19100 fluorescence intensity (a.u.)
19,GATCAATGATGCGCCATTGACAAGATCCCTGCTAAGGGAGCGGAGTCACCTAGTGCAG,3720 fluorescence intensity (a.u.)
20,TGTTAGATTTGTTCATCCATTATATTTTCTTGAAAGGAAACGGAGTCACCTAGTGCAG,6360 fluorescence intensity (a.u.)
21,ACAGATTGGACGGCCGCCCGAGCTATACTATTACCGTTTTCGGAGTCACCTAGTGCAG,20800 fluorescence intensity (a.u.)
